# Measurements from paper PMC12136788.
# Some of the results follow.
# T1: UNK ZnF1-3 (human, UniProt Q9C0B0 31-174)
# T1 sequence: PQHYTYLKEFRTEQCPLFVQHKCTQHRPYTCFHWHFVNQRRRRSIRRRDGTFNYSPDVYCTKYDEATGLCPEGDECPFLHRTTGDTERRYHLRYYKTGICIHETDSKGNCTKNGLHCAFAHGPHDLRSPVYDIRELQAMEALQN
# B1: chr11:86518203:86518204:-_ENSMUSG00000047126_ENSMUST00000103186|perfect_dup|motif|central (ssRNA)
# RNA: GGGAGUUCUACAGUCCGACGAUCGAACAACUCCAGGUGUUCUCUCAUUUUCUGUGGCUUGAAUUUAGAAUACAAAAUAGCGGGCUCUGUGAACAUUCCCAUGUGAGCUCGCUCCAGUCCCAAGGCUGCCUCCAACAUGGUGAUCAACAGAGGAUUGAGCAUCA
# B2: chr12:73642893:73642894:+_ENSMUSG00000034501_ENSMUST00000044352|mus_mus|FALSE|FALSE (ssRNA)
# RNA: GGGAGUUCUACAGUCCGACGAUCCACAAAGAGCACAGCAGUCGCCCCAGGGCUGCCAUACAGCAAGGUUACUCGGUUUGGGAGCAAAUACCAUGUUCCAAGACCACACACUAGCCCAGCAAGAACAGAAUGAAAAACUGUAUUCAACAGAGGAUUGAGCAUCA
# B3: chr18:52894491:52894492:-_ENSG00000196628_ENST00000354452|hu_mus|FALSE|FALSE (ssRNA)
# RNA: GGGAGUUCUACAGUCCGACGAUCCAAAAAAAAAAAUCCAUAUUUACAGUAAAAUCUUUCUUUUAAAAAAGUUAAUCAGUACUAUUUUUUUACAGGAGAAAAAAGUCUGAAACAAAUCAACAAAAGCUUACCAUAGUCACUAAACAACAGAGGAUUGAGCAUCA
# B4: chr12:56508462:56508463:+_ENSMUSG00000021024_ENSMUST00000021412|mus_mus|FALSE|FALSE (ssRNA)
# RNA: GGGAGUUCUACAGUCCGACGAUCACAGUCCUUUCCUCUGACAGCAACAGAUGUAAGUCCACCCUGGUUAAUAGCCUUAAAAGCAUAUUCUACUUGGUAGAGUCGGCCCUCGGGAGAGAAGAUAGUAAUGUGACGGUCAAAACCCAACAGAGGAUUGAGCAUCA
# B5: chr1:39494447:39494448:+_ENSG00000168653_ENST00000372967|hu_mus|hu_hu_hu_mus_False|48_98 (ssRNA)
# RNA: GGGAGUUCUACAGUCCGACGAUCGCACCGAGCGGCGAUCUUGUAGGGCUGUUCUGCGCUUAGGAACAUAAAGUGCCGGUCCAGGCUAAGGCCGAACUUUUUCUGUAUGUCAAGGAAAGGCAUGGCUCUGCAGUGCCCUUGUCACAACAGAGGAUUGAGCAUCA
# B6: chr7:140404665:140404666:+_ENSG00000090266_ENST00000247866|hu_hu|hu_hu_hu_mus_False|18_98 (ssRNA)
# RNA: GGGAGUUCUACAGUCCGACGAUCUGCUCCUACUCGUAGGCUGAGUCUACAGUGUCAGUCCUCGUCAUCAGGAGGGAUUCCCAGUUCUUCAUCUGUCCACUGUGAAGGAUCUGGAUACGGAAAGUGACCCAGCACAGCAUCCGACAACAGAGGAUUGAGCAUCA
# B7: chr12:29513650:29513651:+_ENSMUSG00000036613_ENSMUST00000035657|mus_mus|FALSE|FALSE (ssRNA)
# RNA: GGGAGUUCUACAGUCCGACGAUCCUCCAGGGUCUGAGCAGUGCUUGCAGGGUCGUCAGGGGACUCGUGGCUACCGGAUUCUAAUUCCUUGGGCAUCCUCCACACAGCUGCACACGCCUGGACUCGACUGUCUGUAGUUUUGUUCAACAGAGGAUUGAGCAUCA
# B8: chr6:86333760:86333761:-_ENSG00000135316_ENST00000355238|hu_mus|hu_hu_hu_mus_True|18_78 (ssRNA)
# RNA: GGGAGUUCUACAGUCCGACGAUCUUCCUCAAGAAUCUGCUCCUUGGUUUUACUCUUAGGAAUAGAGCCCACAAAAAGCCUAUUGUUGGCAACUGAGAUGCAGACACCAAUGUGCUUUCCAGAACGAAUUUCAUGAUUAUUAUACAACAGAGGAUUGAGCAUCA
# B9: 160276187_160276976_1568_CDS_ENSG00000122218_ENST00000241704|human|control|control (ssRNA)
# RNA: GGGAGUUCUACAGUCCGACGAUCAAGCAGGAGAUUGCCUGUGCCAGCAUAGAAGAUCUCAUCACAGUUGGGCACCUGUACCUUUUUGGUGAUCUCAUUCUUCAGAUUCUUGAUCAGAAGCGAAUGCAUCCGAUCUAGGACAGCCAACAGAGGAUUGAGCAUCA
# B10: chr8:74858975:74858976:-_ENSG00000154582_ENST00000284811|hu_mus|hu_hu_hu_mus_True|18_18 (ssRNA)
# RNA: GGGAGUUCUACAGUCCGACGAUCGACCUUGUAGGUAAAAUACAUGCACACUUUUGAUAGCACAUGUGAGGGGAUCUCUCUAAAAUUGACCUCGUUGGUUUCAUUCUCAGCAAACUGACCUGGGCCACUCAACAUAGCCUUUAUCAACAGAGGAUUGAGCAUCA
# B11: chr2:152658766:152658767:-_ENSG00000162980_ENST00000295087|hu_hu|FALSE|FALSE (ssRNA)
# RNA: GGGAGUUCUACAGUCCGACGAUCACUCUGAAAUUCACUUUAACUGCUUGACAUAUAAUUUAAUACUUAAAAAUAAUAUAGCUAAGUUGUUUAAUAGUAUUUAUAGAAUGCUACUUUUCUGGGUAGACAUGUUUCACAAAACAGCAACAGAGGAUUGAGCAUCA
# B12: chr4:99997899:99997900:-_ENSG00000197894_ENST00000296412|hu_mus|FALSE|FALSE (ssRNA)
# RNA: GGGAGUUCUACAGUCCGACGAUCAGGCUCCACCUUGGCAGUGUUCACAGCAGCCCCGUAGCCAGUUGAAAUACCACAGCCGAGAAGGCAGACUUUAUCCAAAGGGGCCGAAGGAUCGAUUUUAGCAACAGAGAUGUCAGCCACCAACAGAGGAUUGAGCAUCA
# B13: chr2:164332853:164332854:+_ENSMUSG00000017721_ENSMUST00000103101|mus_hu|FALSE|FALSE (ssRNA)
# RNA: GGGAGUUCUACAGUCCGACGAUCAUAGCACACGGCCACCACAGUGCACGUGAGGCAGAUCACGUUGUAGGGCAUGCUGAAGUCCGGUGUCGGCAGGUUCACCAGCAGCGGCUCCGUGUAGAGCCGCACAAAGUAGUUAGAGCCCAACAGAGGAUUGAGCAUCA
# B14: chr2:48026839:48026840:+_ENSG00000116062_ENST00000540021|hu_hu|hu_hu_hu_mus_False|28_28 (ssRNA)
# RNA: GGGAGUUCUACAGUCCGACGAUCAUAGUGAGCCACUAGCGUCCUAAAUCUGGAACAGUGGCGGUCAUCCGAAAACUGGCCGAUGAAAAACUUGCCCAGUGAAGUGUCAACAAAGCAAACACCAUACACACGAGUGUGACCAGACAACAGAGGAUUGAGCAUCA
# B15: chr14:76815493:76815494:+_ENSMUSG00000022010_ENSMUST00000110888|mus_mus|FALSE|FALSE (ssRNA)
# RNA: GGGAGUUCUACAGUCCGACGAUCGCGCCGGCUGCUCGUGCCUUCGAGGGCUUCUUUGGCCAACUCCGGAGCCAGCUCAACCCCCUCCUCCCGCGGCGACGGCCGCUGCAAAAGCCCCUCCGCUCGUCCUGCACCGAGGCAGCGCAACAGAGGAUUGAGCAUCA
# B16: chr12:77883889:77883890:+_ENSMUSG00000090258_ENSMUST00000041262|mus_mus|motif|central (ssRNA)
# RNA: GGGAGUUCUACAGUCCGACGAUCGAAGAGCAGUCGGGUGCUCUUACCCACUGAGCCAUCUCACCAGCCCUAGGCUUGCUCGGUUUUAAAGCAAGCCAACACAGUUACAAGAGAACCAUGGGAGGCUUAGAACAGCAGAGUCAUCAACAGAGGAUUGAGCAUCA
# B17: chr12:42180722:42180723:-_ENSMUSG00000036295_ENSMUST00000043884|mus_hu|mus_mus_mus_hu_True|8_48 (ssRNA)
# RNA: GGGAGUUCUACAGUCCGACGAUCCUGUAGGAGAAGAAUCUGUGUGUUAGCUGGCAAUCUGGCUGGGAAAGUUAAAAGACCUAAAUCAUUACAGUCCACUGUAGAUGCUUCCAUAUAAAUGGAUCUGGGGGUAAACCAAGGCCUCAACAGAGGAUUGAGCAUCA
# B18: chr18:42401725:42401726:-_ENSMUSG00000024493_ENSMUST00000097590|mus_hu|FALSE|FALSE (ssRNA)
# RNA: GGGAGUUCUACAGUCCGACGAUCAGGACGAACCCAACAAUUUGUCUGCCCAAACAUGGUCUCAGGUCUGAGAGUAGCAGCCACCAAGAAAAUAUUUUUACCUUUCAGGCCACUUAAUUUAGAUGGGUAUGGCUCAAGCACCUUCAACAGAGGAUUGAGCAUCA
# B19: 155570381_155570501_6417_3pUTR_ENSG00000184863_ENST00000401878|human|control|control (ssRNA)
# RNA: GGGAGUUCUACAGUCCGACGAUCAUAAAAAUCGAAUAUACACACAAACACAUCAACAACUGUGGAACUGUAUCCAUUAAACUUUGAUAAGACAACACAAAGAACUAAUAGCUAAGAUGUGGCUGAGUUGAAAGCACUUCCAAUCAACAGAGGAUUGAGCAUCA
# B20: 156646888_156647008_241_CDS_ENSG00000132688_ENST00000368223|human|control|control (ssRNA)
# RNA: GGGAGUUCUACAGUCCGACGAUCGGCAUGCGCCCGCCAGGAGGUGUCCGCGGAUUGUGCCCGGAGCCCCCCGAGCUCCGCGCUGAGCAGCUCAUUCUGCUCCUCCAGCGCCUUGACCCGGGCCAGGUAGGCCUCCAGGCGCCGCAACAGAGGAUUGAGCAUCA
# B21: chr22:42033747:42033748:+_ENSG00000196419_ENST00000405878|hu_mus|FALSE|FALSE (ssRNA)
# RNA: GGGAGUUCUACAGUCCGACGAUCCAGGUCUUCCAGCUUGCUUGACUCCUCGAAGUGAACCCCAAGGUCCUCGUCCUCAGCGGUGGUGAUGAUGUCCCUGUAGAACACGGAUACAUCAAAGCCUCCUGGCUUCUUCAGAUGCAUCAACAGAGGAUUGAGCAUCA
# B22: chr4:57889662:57889663:+_ENSG00000047315_ENST00000314595|hu_hu|FALSE|FALSE (ssRNA)
# RNA: GGGAGUUCUACAGUCCGACGAUCAUUGAGAGUUACCAUAACCUGAUCCACAAUGCCCGUCUCGCUAGUUCUGAGAAAAGUGCUACAGUCUCUCUUGGUAUAGCGUCUAUUGGUGCUCUCCAAUUCAUCUUCAUUUUCAGGCAACAACAGAGGAUUGAGCAUCA
# Biological target: T1, UNK ZnF1-3
# Assay: nsRBNS (natural sequence RNA bind-n-seq); RBNS binding buffer (assumed for nsRBNS): 25 mM Tris pH 7.5, 150 mM KCl, 3 mM MgCl2, 0.01% Triton X-100, 500 ug/ml BSA, 20 U/ml SUPERase-In, 4 C; UNK is unkempt and MSI1 is Musashi-1; names of the RNAs are library labels; protein concentration not given here; high values mean tight binding
row,Binder,binding signal [enrichment R]
1,B1,0.775
2,B2,1.25
3,B3,1.78
4,B4,1.19
5,B5,0.622
6,B6,0.909
7,B7,0.889
8,B8,1.07
9,B9,1.01
10,B10,0.649
11,B11,1.68
12,B12,1.83
13,B13,0.521
14,B14,1.46
15,B15,0.639
16,B16,1.31
17,B17,1.29
18,B18,1.22
19,B19,1.27
20,B20,0.479
21,B21,0.845
22,B22,0.974
